# Article PMC11995724, “Antibiotic target discovery by integrated phenotypic and activity-based profiling of electrophilic fragments” (Cell chemical biology, 2025)
# Out of some 3,200 compounds screened, about 110 (3.4%) showed an effect of 50% or more. This is one part of the list.
# Tested on: T1, V. cholerae SAD30
# T1 construct: SAD30
# Parameters: species or system S. aureus MSSA476 (TSB) or V. cholerae SAD30 (LB); 384-well bacterial growth screen at 25 uM, OD600 relative to DMSO control
# Conditions: relative growth, OD600, LB; 25 µM; inhibitor
row,Structure (SMILES),% of control remaining
1,"CC(Cl)C(=O)N1CCC(n2ncc3ccccc32)C1 (centres unmarked) [7-K04, 2-chloro-1-[3-(1H-indazol-1-yl)pyrrolidin-1-yl]propan-1-one]",86.833%
2,"Cl.O=C(CCl)c1ccncc1 [10-M09, 2-chloro-1-(pyridin-4-yl)ethan-1-one hydrochloride]",-0.1559%
3,"C=CC(=O)NCCn1nnnc1C [2-A03, N-[2-(5-methyl-1H-1,2,3,4-tetrazol-1-yl)ethyl]prop-2-enamide]",117.215%
4,"CCC(=O)NC1CCN(C(=O)CCl)C1 (centres unmarked) [5-G04, N-[1-(2-chloroacetyl)pyrrolidin-3-yl]propanamide]",99.359%
5,"CC1CCN(C(=O)CCl)c2cc(Cl)ccc2S1 (centres unmarked) [4-G16, 2-chloro-1-(7-chloro-2-methyl-2,3,4,5-tetrahydro-1,5-benzothiazepin-5-yl)ethan-1-one]",96.4417%
6,"C=CC(=O)NCc1ccccc1-n1nc(C)cc1C [3-P19, N-{[2-(3,5-dimethyl-1H-pyrazol-1-yl)phenyl]methyl}prop-2-enamide]",109.204%
7,"N#CC(=Cc1ccc(Cl)cc1Cl)C(N)=O [8-H17, 2-cyano-3-(2,4-dichlorophenyl)prop-2-enamide]",73.0795%
8,"CC(NC(=O)C(C#N)=Cc1ccco1)c1cccc(-n2ccnc2)c1 (centres unmarked) [9-H04, 2-cyano-3-(furan-2-yl)-N-{1-[3-(1H-imidazol-1-yl)phenyl]ethyl}prop-2-enamide]",88.8511%
9,"C=CC(=O)N1CCC(n2ccnn2)CC1 [3-K09, 1-[4-(1H-1,2,3-triazol-1-yl)piperidin-1-yl]prop-2-en-1-one]",92.7954%
10,"Cc1c(C=C(C#N)C(=O)Nc2ccccc2F)cc(C#N)n1C [8-A13, 2-cyano-3-(5-cyano-1,2-dimethyl-1H-pyrrol-3-yl)-N-(2-fluorophenyl)prop-2-enamide]",90.4827%
11,"O=C(CCl)Nc1cccc(S(=O)(=O)N2CCOCC2)c1 [4-P08, 2-chloro-N-[3-(morpholine-4-sulfonyl)phenyl]acetamide]",121.458%
12,"C=CC(=O)NC1(Cc2nnc3ccccn23)CCCCC1 [2-L03, N-[1-({[1,2,4]triazolo[4,3-a]pyridin-3-yl}methyl)cyclohexyl]prop-2-enamide]",109.341%
13,"CCOC(=O)c1ccccc1NC(=O)CCl [4-B17, ethyl 2-(2-chloroacetamido)benzoate]",96.6142%
14,"Cc1ccc(C=C(C#N)C(=O)Nc2cccc3ccccc23)cc1 [8-M14, 2-cyano-3-(4-methylphenyl)-N-(naphthalen-1-yl)prop-2-enamide]",75.3909%
15,"C=CCNC(=O)C(C#N)=Cc1ccc(C)s1 [9-F05, 2-cyano-3-(5-methylthiophen-2-yl)-N-(prop-2-en-1-yl)prop-2-enamide]",77.8382%
16,"C=CCNC(=O)C(C#N)=Cc1ccc(C)c(C)c1 [9-D21, 2-cyano-3-(3,4-dimethylphenyl)-N-(prop-2-en-1-yl)prop-2-enamide]",87.8994%
17,"CC(C)NC(=O)C(C#N)=Cc1cnn(-c2ccc(Cl)cc2)c1 [8-I08, 3-[1-(4-chlorophenyl)-1H-pyrazol-4-yl]-2-cyano-N-(propan-2-yl)prop-2-enamide]",68.3209%
18,"C=CC(=O)Nc1conc1-c1ccccc1 [1-I09, N-(3-phenyl-1,2-oxazol-4-yl)prop-2-enamide]",86.0987%
19,"COc1ccc(-c2csc(NC(=O)CCl)n2)cc1 [4-N06, 2-chloro-N-[4-(4-methoxyphenyl)-1,3-thiazol-2-yl]acetamide]",106.793%
20,"C=CC(=O)Nc1ncnc2c1cnn2Cc1cccc(C)c1 [1-M21, N-{1-[(3-methylphenyl)methyl]-1H-pyrazolo[3,4-d]pyrimidin-4-yl}prop-2-enamide]",90.7324%
21,"C=CC(=O)NC12CC3CC(CC(C3)C1)C2 [1-E12, N-(adamantan-1-yl)prop-2-enamide]",82.2123%
22,"CCN1C(=O)CC[C@H](CNC(=O)C(C)Cl)[C@H]1c1cnn(C)c1 (mixture of isomers) [6-L13, rac-2-chloro-N-{[(2R,3S)-1-ethyl-2-(1-methyl-1H-pyrazol-4-yl)-6-oxopiperidin-3-yl]methyl}propanamide]",86.6054%
23,"C=CC(=O)Nc1ccc(-n2cnnn2)c(F)c1 [1-I17, N-[3-fluoro-4-(1H-1,2,3,4-tetrazol-1-yl)phenyl]prop-2-enamide]",88.9387%
24,"C=CC(=O)NCc1cnc(CC(C)C)s1 [1-J10, N-{[2-(2-methylpropyl)-1,3-thiazol-5-yl]methyl}prop-2-enamide]",104.514%
25,"C=CC(=O)N1CCCN(S(=O)(=O)c2ccc(OC)cc2)CC1 [3-G10, 1-[4-(4-methoxybenzenesulfonyl)-1,4-diazepan-1-yl]prop-2-en-1-one]",94.0305%
26,"CCc1ccc(OC(C)C(=O)N2CCN(C(=O)C(C)Cl)CC2)cc1 (centres unmarked) [6-H16, 1-[4-(2-chloropropanoyl)piperazin-1-yl]-2-(4-ethylphenoxy)propan-1-one]",86.302%
27,"Cc1cc(C(=O)CCl)c(C)n1CCc1ccc(Cl)cc1 [10-N16, 2-chloro-1-{1-[2-(4-chlorophenyl)ethyl]-2,5-dimethyl-1H-pyrrol-3-yl}ethan-1-one]",92.7333%
28,"C=CC(=O)NCc1ccc(C(=O)N2CCOC3(CCCC3)C2)cc1 [3-B05, N-[(4-{6-oxa-9-azaspiro[4.5]decane-9-carbonyl}phenyl)methyl]prop-2-enamide]",107.616%
29,"C=CC(=O)Nc1ccccc1CNS(C)(=O)=O [3-F16, N-[2-(methanesulfonamidomethyl)phenyl]prop-2-enamide]",93.1483%
